Experimental data: the supplement of paper PMC8728848
The other results are listed elsewhere or left out.

Key:
Test in all cases: glycan array binding signal (z-score within array); higher = stronger binding
Settings in all cases: glycan notation: IUPAC condensed, linker removed
[1] = target: GlcNAc(b1-3)Gal(b1-4)GlcNAc(b1-3)Gal(b1-4)GlcNAc(b1-3)GalNAc
How it was run: (§1)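 Glycan array data came from 3228 arrays in the Consortium for Functional Glycomics database, and only arrays with an available protein sequence were kept. Glycan names were put into IUPAC-condensed notation, and columns mapping to the same glycan were averaged. The binding signal is a within-array Z-score, averaged across arrays of one protein sequence run at different concentrations or buffers and across linkers. A negative Z-score can be read as non-binding.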

[2] = target: GlcNAc(b1-3)Gal(b1-4)GlcNAc(b1-3)GalNAc
How it was run: as §1

[3] = target: GlcNAc(b1-3)Gal(b1-4)GlcNAc(b1-3)[GlcNAc(b1-3)Gal(b1-4)GlcNAc(b1-3)]GalNAc
How it was run: as §1

[4] = target: GlcNAc(b1-3)Gal(b1-4)GlcNAc(b1-6)[Gal(b1-3)]GalNAc
How it was run: as §1

[5] = target: GlcNAc(b1-3)Gal(b1-4)GlcNAc(b1-6)[GlcNAc(b1-3)Gal(b1-3)]GalNAc
How it was run: as §1

[6] = target: GlcNAc(b1-3)Gal(b1-4)GlcNAc(b1-6)[GlcNAc(b1-3)]Gal(b1-4)GlcNAc
How it was run: as §1

GlcNAc(b1-3)GalNAc = target: GlcNAc(b1-3)GalNAc
How it was run: as §1

GlcNAc(b1-3)Man = target: GlcNAc(b1-3)Man
How it was run: as §1

[7] = target: GlcNAc(b1-3)[GlcNAc(b1-4)][GlcNAc(b1-6)]GlcNAc
How it was run: as §1

[8] = target: GlcNAc(b1-3)[GlcNAc(b1-6)]Gal(b1-4)GlcNAc
How it was run: as §1

[9] = target: GlcNAc(b1-3)[GlcNAc(b1-6)]GalNAc
How it was run: as §1

[10] = target: GlcNAc(b1-4)Gal(b1-4)GlcNAc
How it was run: as §1

GlcNAc(b1-4)GlcNAc = target: GlcNAc(b1-4)GlcNAc
How it was run: as §1

[11] = target: GlcNAc(b1-4)GlcNAc(b1-4)GlcNAc
How it was run: as §1

[12] = target: GlcNAc(b1-4)GlcNAc(b1-4)GlcNAc(b1-4)GlcNAc(b1-4)GlcNAc
How it was run: as §1

[13] = target: GlcNAc(b1-4)GlcNAc(b1-4)GlcNAc(b1-4)GlcNAc(b1-4)GlcNAc(b1-4)GlcNAc
How it was run: as §1

[14] = target: GlcNAc(b1-4)[GlcNAc(b1-6)]GalNAc
How it was run: as §1

[15] = target: GlcNAc(b1-6)Gal(b1-4)GlcNAc
How it was run: as §1

GlcNAc(b1-6)GalNAc = target: GlcNAc(b1-6)GalNAc
How it was run: as §1

GlcNAc3Prop(b1-4)GlcNAc = target: GlcNAc3Prop(b1-4)GlcNAc
How it was run: as §1

[16] = target: GlcNAc6S(b1-3)Gal(b1-4)GlcNAc
How it was run: as §1

Kdn(a2-3)Gal(b1-3)GalNAc = target: Kdn(a2-3)Gal(b1-3)GalNAc
How it was run: as §1

Kdn(a2-3)Gal(b1-3)GlcNAc = target: Kdn(a2-3)Gal(b1-3)GlcNAc
How it was run: as §1

Kdn(a2-3)Gal(b1-4)Glc = target: Kdn(a2-3)Gal(b1-4)Glc
How it was run: as §1

Kdn(a2-3)Gal(b1-4)GlcNAc = target: Kdn(a2-3)Gal(b1-4)GlcNAc
How it was run: as §1

[17] = target: Kdn(a2-3)Gal(b1-4)[Fuc(a1-3)]GlcNAc
How it was run: as §1

Kdn(a2-6)Gal(b1-4)GlcNAc = target: Kdn(a2-6)Gal(b1-4)GlcNAc
How it was run: as §1

[18] = target: Man(a1-2)Man(a1-2)Man(a1-3)Man
How it was run: as §1

[19] = target: Man(a1-2)Man(a1-2)Man(a1-6)[Man(a1-3)]Man
How it was run: as §1

Man(a1-2)Man(a1-3)Man = target: Man(a1-2)Man(a1-3)Man
How it was run: as §1

[20] = target: Man(a1-2)Man(a1-3)[Man(a1-2)Man(a1-6)]Man
How it was run: as §1

[21] = target: Man(a1-2)Man(a1-3)[Man(a1-2)Man(a1-6)]Man(a1-6)[Man(a1-2)Man(a1-2)Man(a1-3)]Man
How it was run: as §1

[22] = target: Man(a1-2)Man(a1-3)[Man(a1-2)Man(a1-6)]Man(a1-6)[Man(a1-2)Man(a1-2)Man(a1-3)]Man(b1-4)GlcNAc(b1-4)GlcNAc
How it was run: as §1

[23] = target: Man(a1-2)Man(a1-3)[Man(a1-6)]Man(a1-6)[Man(a1-2)Man(a1-3)]Man(b1-4)GlcNAc(b1-4)GlcNAc
How it was run: as §1

[24] = target: Man(a1-2)Man(a1-6)[Man(a1-3)]Man(a1-6)[Man(a1-2)Man(a1-2)Man(a1-3)]Man
How it was run: as §1

[25] = target: Man(a1-2)Man(a1-6)[Man(a1-3)]Man(a1-6)[Man(a1-2)Man(a1-2)Man(a1-3)]Man(b1-4)GlcNAc(b1-4)GlcNAc
How it was run: as §1

Man(a1-3)[Man(a1-6)]Man = target: Man(a1-3)[Man(a1-6)]Man
How it was run: as §1

[26] = target: Man(a1-3)[Man(a1-6)]Man(a1-6)[Man(a1-2)Man(a1-3)]Man(b1-4)GlcNAc(b1-4)GlcNAc
How it was run: as §1

[27] = target: Man(a1-3)[Man(a1-6)]Man(a1-6)[Man(a1-3)]Man
How it was run: as §1

[28] = target: Man(a1-3)[Man(a1-6)]Man(a1-6)[Man(a1-3)]Man(b1-4)GlcNAc(b1-4)GlcNAc
How it was run: as §1

[29] = target: Man(a1-3)[Man(a1-6)]Man(b1-4)GlcNAc(b1-4)GlcNAc
How it was run: as §1

[30] = target: Man(a1-3)[Man(a1-6)]Man(b1-4)GlcNAc(b1-4)[Fuc(a1-6)]GlcNAc
How it was run: as §1

Man(a1-6)Man = target: Man(a1-6)Man
How it was run: as §1

Man(b1-4)GlcNAc = target: Man(b1-4)GlcNAc
How it was run: as §1

MurNAc(b1-4)GlcNAc = target: MurNAc(b1-4)GlcNAc
How it was run: as §1

B1: AAL (Agrocybe aegerita), Q6WY08 (protein)
chain: MQGVNIYNISAGTSVDLAAPVTTGDIVTFFSSALNLNAGAGNPNNTTLNLFAENGAYLLHIAFRLQENVIIFNSRQPDGPWLVEQRVSDVANQFAGIDGKAMVTVFDHGDKYQVVINEKTVIQYTKQISGLTLSLSYNATEETSIFSTVVEAVTYTGLALEHHHHHH
glycan array binding signal (z-score) [1]: -0.123 | glycan array binding signal (z-score) [2]: -0.146 | glycan array binding signal (z-score) [3]: -0.12 | glycan array binding signal (z-score) [4]: -0.134 | glycan array binding signal (z-score) [5]: -0.145 | glycan array binding signal (z-score) [6]: -0.163 | glycan array binding signal (z-score) (GlcNAc(b1-3)GalNAc): -0.155 | glycan array binding signal (z-score) (GlcNAc(b1-3)Man): -0.138 | glycan array binding signal (z-score) [7]: -0.149 | glycan array binding signal (z-score) [8]: -0.164 | glycan array binding signal (z-score) [9]: -0.158 | glycan array binding signal (z-score) [10]: -0.158 | glycan array binding signal (z-score) (GlcNAc(b1-4)GlcNAc): -0.145 | glycan array binding signal (z-score) [11]: -0.153 | glycan array binding signal (z-score) [12]: -0.16 | glycan array binding signal (z-score) [13]: -0.152 | glycan array binding signal (z-score) [14]: -0.149 | glycan array binding signal (z-score) [15]: -0.159 | glycan array binding signal (z-score) (GlcNAc(b1-6)GalNAc): -0.149 | glycan array binding signal (z-score) (GlcNAc3Prop(b1-4)GlcNAc): -0.159 | glycan array binding signal (z-score) [16]: -0.144 | glycan array binding signal (z-score) (Kdn(a2-3)Gal(b1-3)GalNAc): -0.132 | glycan array binding signal (z-score) (Kdn(a2-3)Gal(b1-3)GlcNAc): -0.135 | glycan array binding signal (z-score) (Kdn(a2-3)Gal(b1-4)Glc): -0.138 | glycan array binding signal (z-score) (Kdn(a2-3)Gal(b1-4)GlcNAc): 0.108 | glycan array binding signal (z-score) [17]: -0.136 | glycan array binding signal (z-score) (Kdn(a2-6)Gal(b1-4)GlcNAc): -0.155 | glycan array binding signal (z-score) [18]: -0.151 | glycan array binding signal (z-score) [19]: -0.142 | glycan array binding signal (z-score) (Man(a1-2)Man(a1-3)Man): -0.157 | glycan array binding signal (z-score) [20]: -0.155 | glycan array binding signal (z-score) [21]: -0.153 | glycan array binding signal (z-score) [22]: -0.134 | glycan array binding signal (z-score) [23]: -0.156 | glycan array binding signal (z-score) [24]: -0.143 | glycan array binding signal (z-score) [25]: -0.162 | glycan array binding signal (z-score) (Man(a1-3)[Man(a1-6)]Man): -0.16 | glycan array binding signal (z-score) [26]: -0.153 | glycan array binding signal (z-score) [27]: -0.123 | glycan array binding signal (z-score) [28]: -0.118 | glycan array binding signal (z-score) [29]: -0.158 | glycan array binding signal (z-score) [30]: -0.164 | glycan array binding signal (z-score) (Man(a1-6)Man): -0.137 | glycan array binding signal (z-score) (Man(b1-4)GlcNAc): -0.153 | glycan array binding signal (z-score) (MurNAc(b1-4)GlcNAc): -0.161
